System: Vcap cells (androgen receptor (+) prostate cancer cells)
Experiment: CTG cell proliferation assay (CellTiter-Glo), compounds alone or in combination
[1] = 1 μM tested compound in combination with 1 μM Abiraterone acetate
[2] = 10 μM tested compound in combination with 1 μM ODM-201

SMILES | Survival rate of Vcap cells [1] [%] | Survival rate of Vcap cells (1 μM tested compound in combination with 1 μM ODM-201) [%] | Survival rate of Vcap cells [2] [%] | Survival rate of Vcap cells (1 μM tested compound in combination with 1 μM Galeterone) [%] | Survival rate of Vcap cells (1 μM tested compound in combination with 1 μM prednisone) [%] | Survival rate of Vcap cells (10 μM tested compound in combination with 1 μM Abiraterone acetate) [%] | Survival rate of Vcap cells (10 μM tested compound in combination with 1 μM Galeterone) [%] | Survival rate of Vcap cells (10 μM tested compound in combination with 1 μM prednisone) [%]
CC1(C)C(=O)N(c2ccc(C#N)c(C(F)(F)F)c2F)C(=S)N1c1ccc(CCCC#N)c(F)c1 [AR2-4] | 71.2 | 74.1 | 42.3 |  |  |  |  | 
CC1(C)C(=O)N(c2ccc(C#N)c(C(F)(F)F)c2)C(=S)N1c1ccc(OC[C@@H](O)CO)cc1 [AR3-3] | 75.0 |  | 64.5 | 78.0 | 82.3 | 57.5 | 62.2 | 60.3
